The results in this text go back to patent US20260201058A1 (SICHUAN HUIYU PHARMACEUTICAL, published 2026).

Where a chain is given by its changes, count along the chain named.

The labels stand for the following.
B1: CD3-PDL1-MSLN trispecific antibody 5Y3-4 (other)
light: [omitted - about 100 residues][omitted - about 100 residues]
heavy: EVQLVESGGGLVQPGGSLRLSCAASGFTFNTYAMNWVRQAPGKGLEWVARIRSKYNNYATYYADSVKGRFTISRDDSKSSLYLQMNSLKTEDTAVYYCVRHGNFGNNYVSWFASWGQGTLVTVSSASTKGPSVFPLAPSSKSTSGGTAALGCLVKDYFPEPVTVSWNSGALTSGVHTFPAVLQSSGLYSLSSVVTVPSSSLGTQTYICNVNHKPSNTKVDKKVEPKSCDKTHTCPPCPAPEAAGAPSVFLFPPKPKDTLMISRTPEVTCVVVDVSHEDPEVKFNWYVDGVEVHNAKTKPREEQYNSTYRVVSVLTVLHQDWLNGKEYKCAVSNKALPAPIEKTISKAKGQPREPQVYTLPPSRDELTKNQVSLWCLVKGFYPSDIAVEWESNGQPENNYKTTPPVLDSDGSFFLYSKLTVDKSRWQQGNVFSCSVMHEALHNHYTQKSLSLSPGGGGGSGGGGSGGGGSEVQLVESGGGLIQPGGSLRLSCAASGNIGSIRHMGWVRQAPGKERELVATITTVGTTYYANFVKGRFTISRDNSKNTLYLQMNSLRAEDTAVYYCRATAHPTDYWGQGTLVTVSS
chain: EVQLVESGGGLIQPGGSLRLSCAASGNIGSIRHMGWVRQAPGKERELVATITTVGTTYYANFVKGRFTISRDNSKNTLYLQMNSLRAEDTAVYYCRATAHPTDYWGQGTLVTVSSGGGGSDKTHTCPPCPAPEAAGAPSVFLFPPKPKDTLMISRTPEVTCVVVDVSHEDPEVKFNWYVDGVEVHNAKTKPREEQYNSTYRVVSVLTVLHQDWLNGKEYKCAVSNKALPAPIEKTISKAKGQPREPQVYTLPPSRDELTKNQVSLSCAVKGFYPSDIAVEWESNGQPENNYKTTPPVLDSDGSFFLVSKLTVDKSRWQQGNVFSCSVMHEALHNHYTQKSLSLSPGGGGGSGGGGSGGGGSEVQLLESGGGLVQPGGSLRLSCAASGRTFSTNVMGWFRQAPGKGREFVSAISRAGSTYSADSVKGRFTISRDNSKNTLYLQMNSLRAEDTAVYYCAAGSSPTAIFGKSGMDYWGQGTQVTVSS
notes: Trispecific, three chains, structure as for 5Y3-1
B2: CD3-PDL1-MSLN trispecific antibody 5Y3-16 (other)
light: [omitted - about 100 residues][omitted - about 100 residues]
heavy: B1 heavy
chain: EVQLVESGGGLIQPGGSLRLSCAASGNIGSIRHMGWVRQAPGKERELVATITTVGTTYYANFVKGRFTISRDNSKNTLYLQMNSLRAEDTAVYYCRATAHPTDYWGQGTLVTVSSGGGGSDKTHTCPPCPAPEAAGAPSVFLFPPKPKDTLMISRTPEVTCVVVDVSHEDPEVKFNWYVDGVEVHNAKTKPREEQYNSTYRVVSVLTVLHQDWLNGKEYKCAVSNKALPAPIEKTISKAKGQPREPQVYTLPPSRDELTKNQVSLSCAVKGFYPSDIAVEWESNGQPENNYKTTPPVLDSDGSFFLVSKLTVDKSRWQQGNVFSCSVMHEALHNHYTQKSLSLSPGGGGGSGGGGSGGGGSEVQLVESGGGLVQPGGSLRLSCAASGGTFLTYGMGWFRQAPGKGLEFVAAINWSGSMTNYADSVKGRFTISRDNAKNTVYLQMNSLRAEDTAVYYCAAKTGAVAYIQKNEYDYWGQGTQVTVSS
notes: as for B1
B3: CD3-PDL1-MSLN trispecific antibody 5Y3-14 (other)
light: [omitted - about 100 residues][omitted - about 100 residues]
heavy: B1 heavy with S80I, V95M, G102E, N103R, N107S, S114Y
chain: B1 chain with T392S, N393Y, G405E
notes: as for B1
B4: CD3-PDL1-MSLN trispecific antibody 5Y3-15 (other)
light: [omitted - about 100 residues][omitted - about 100 residues]
heavy: B1 heavy with G68D, S87N, V95M, N107T, S114M
chain: B1 chain with T392S, N393Y, G405E
notes: as for B1
B5: CD3-PDL1-MSLN trispecific antibody 5Y3-12 (other)
light: [omitted - about 100 residues][omitted - about 100 residues]
heavy: B1 heavy with G68D, S87N, V95M, N107T, S114M
chain: B1 chain with G405E
notes: as for B1
B6: CD3-PDL1-MSLN trispecific antibody 5Y3-1 (other)
light: [omitted - about 100 residues][omitted - about 100 residues]
heavy: B1 heavy
chain: B1 chain with P375A, R406L
B7: CD3-PDL1-MSLN trispecific antibody 5Y3-8 (other)
light: [omitted - about 100 residues][omitted - about 100 residues]
heavy: B1 heavy with S80I, V95M, G102E, N103R, N107S, S114Y
chain: B1 chain with T392S, N393Y
notes: as for B1
B8: CD3-PDL1-MSLN trispecific antibody 5Y3-10 (other)
light: [omitted - about 100 residues][omitted - about 100 residues]
heavy: B1 heavy
chain: B1 chain with G405E
notes: as for B1
B9: CD3-PDL1-MSLN trispecific antibody 5Y3-9 (other)
light: [omitted - about 100 residues][omitted - about 100 residues]
heavy: B1 heavy with G68D, S87N, V95M, N107T, S114M
chain: B1 chain with T392S, N393Y
notes: as for B1
B10: CD3-PDL1-MSLN trispecific antibody 5Y3-2 (other)
light: [omitted - about 100 residues][omitted - about 100 residues]
heavy: B1 heavy with S80I, V95M, G102E, N103R, N107S, S114Y
chain: B1 chain with P375A, R406L
notes: as for B1
B11: CD3-PDL1-MSLN trispecific antibody 5Y3-5 (other)
light: [omitted - about 100 residues][omitted - about 100 residues]
heavy: B1 heavy with S80I, V95M, G102E, N103R, N107S, S114Y
chain: B1 chain
notes: as for B1
B12: CD3-PDL1-MSLN trispecific antibody 5Y3-6 (other)
light: [omitted - about 100 residues][omitted - about 100 residues]
heavy: B1 heavy with G68D, S87N, V95M, N107T, S114M
chain: B1 chain
notes: as for B1
B13: CD3-PDL1-MSLN trispecific antibody 5Y3-11 (other)
light: [omitted - about 100 residues][omitted - about 100 residues]
heavy: B1 heavy with S80I, V95M, G102E, N103R, N107S, S114Y
chain: B1 chain with G405E
notes: as for B1
B14: CD3-PDL1-MSLN trispecific antibody 5Y3-13 (other)
light: [omitted - about 100 residues][omitted - about 100 residues]
heavy: B1 heavy
chain: B1 chain with T392S, N393Y, G405E
notes: as for B1
B15: CD3-PDL1-MSLN trispecific antibody 5Y3-7 (other)
light: [omitted - about 100 residues][omitted - about 100 residues]
heavy: B1 heavy
chain: B1 chain with T392S, N393Y
notes: as for B1
B16: CD3-PDL1-MSLN trispecific antibody 5Y3-3 (other)
light: [omitted - about 100 residues][omitted - about 100 residues]
heavy: B1 heavy with G68D, S87N, V95M, N107T, S114M
chain: B1 chain with P375A, R406L
notes: as for B1

T2 sequence (Q13421 other isoform, or with tags, fused parts or gaps limits assumed): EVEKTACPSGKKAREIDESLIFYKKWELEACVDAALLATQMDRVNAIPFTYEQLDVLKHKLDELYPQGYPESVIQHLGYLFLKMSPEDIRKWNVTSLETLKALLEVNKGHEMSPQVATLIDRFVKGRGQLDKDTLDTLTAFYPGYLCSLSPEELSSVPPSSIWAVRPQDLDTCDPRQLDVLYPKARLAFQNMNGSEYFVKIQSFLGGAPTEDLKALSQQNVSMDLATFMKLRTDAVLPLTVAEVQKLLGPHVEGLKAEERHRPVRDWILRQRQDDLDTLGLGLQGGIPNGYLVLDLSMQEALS

For the first assay, the target named is CD3 on human Jurkat cells (ATCC TIB-152) (human). The assay can be described thus: flow cytometry on Jurkat cells. In general terms: A flow cytometer gives signals particle by particle.
The term EC50 denotes the midpoint of the concentration-response curve. High values mean lower potency in that assay, low ones higher potency in that assay. Molecule B1 gave an EC50 of 38.3 nM.
The same measure, in the same setting: to B2 belongs 31 nM; to B3, 9.31 nM; to B4, 11.9 nM.
The same measure, in the same setting: the value for B5 was 12.4 nM; that for B6 was 24.9 nM; that for B7 was 26.2 nM.
For B8, the EC50 was found to be 50.9 nM.
With B9, the EC50 came to 23.4 nM.
Still for that read-out and setting: the value for B10 was 52.9 nM.
B11 yielded an EC50 of 13.4 nM.
Same read-out and setting: to B12 belongs 38.2 nM.
B13: the EC50 worked out at 12.7 nM.
With B14, the EC50 is 36 nM.
B15 displayed an EC50 of 47.8 nM.
Still for that read-out and setting: to B16 belongs 15.5 nM.

A further assay concerns the target T1, human PD-L1 on CHO-huPDL1 cells (human, UniProt Q9NZQ7).
T1 construct: whole, on cells; also called CHO-hPDL1
The assay can be described thus: flow cytometry on CHO-huPDL1 cells. From the text:
After washing with PBS, a flow cytometer was used for detection.
In general, EC50 (read off the curve) refers to the midpoint of the concentration-response curve. A high value points to a need for much substance. As for B1, the “EC50 (read off the curve)” value is around 80 nM.
As for B2, the “EC50 (read off the curve)” value was around 0.6 nM.
As to B6, the “EC50 (read off the curve)” value was around 40 nM.
Still for that read-out and setting: to B11 belongs around 20 nM.
Still for that read-out and setting: the value for B12 was around 50 nM; that for B15 was around 50 nM.

In another assay the target is T2, human MSLN on MC38/MSLN cells (human, UniProt Q13421 296-598).
T2 construct: whole, on cells; also called huMSLN; cells expressing MSLN
The assay can be described thus: flow cytometry on MC38/MSLN cells (human MSLN).
With B7, the 50% effective concentration (EC50 (read off the curve)) is around 2 nM.
Still for that read-out and setting: to B8 belongs around 2 nM.
Same read-out and setting: to B9 belongs around 2 nM; to B12, around 2 nM; to B15, around 2 nM.

The next assay has as its target T2, human MSLN on MC38/MSLN cells. The assay can be described thus: flow cytometry on MC38/MSLN cells (human MSLN). This is another data set of the same source.
For the molecule B2, the “EC50 (read off the curve)” value is around 2 nM.

A further assay addresses T3, hFc-tagged human MSLN recombinant protein (huMSLN-hFc, Kactus Biosystems, MSL-HM280) (human, UniProt Q13421 296-580).
T3 construct: Bought protein; also called huMSLN-Fc; human MSLN-Fc
The assay can be described thus: Carterra HC200M chip, antibody captured via anti-human IgG Fc, 1:1 model.
The Kd is the concentration at which binding is half-saturated. For B1, the Kd is 4.6 nM.
Still for that read-out and setting: to B2 belongs 7.98 nM; to B3, 8.38 nM; to B4, 8.21 nM.
With B5, the Kd came out at 4.24 nM.
On the same count and under the same terms, the value for B6 was 4.58 nM.
In the case of B7, the Kd turned out to be 4.3 nM.
On the same count and under the same terms, to B8 belongs 4.45 nM; to B9, 4.18 nM.
On the same count and under the same terms, the value for B10 was 4.66 nM; that for B11 was 4.66 nM.
Consider B12, for which the Kd came to 4.52 nM.
With B13, the Kd came to 4.38 nM.
With B14, the Kd came to 4.38 nM.
Still for that read-out and setting: to B15 belongs 4.53 nM.
Still for that read-out and setting: the value for B16 was 4.65 nM.

Another assay addresses T4, human PD-L1 protein (ACRO, PD1-H5258) (human, UniProt Q9NZQ7 in part).
T4 construct: Bought protein; also called Human PDL1-Fc
Described as above.
With B1, the Kd turned out to be 433 nM.
Still for that read-out and setting: to B2 belongs 0.121 nM.
B3: binding was put at a Kd of 128 nM.
For the molecule B4, the Kd was found to be 133 nM.
For B5, the Kd was 380 nM.
On the same count and under the same terms, the value for B6 was 393 nM; that for B7 was 140 nM; that for B8 was 370 nM.
Still for that read-out and setting: the value for B9 was 119 nM.
Same read-out and setting: the value for B10 was 399 nM; that for B11 was 366 nM; that for B12 was 344 nM.
Turning to B13, binding was put at a Kd of 362 nM.
Same read-out and setting: the value for B14 was 146 nM; that for B15 was 133 nM.
For the molecule B16, binding was characterised by a dissociation constant (Kd) of 396 nM.

The target of another assay is T5, human CD3εγ (acrobiosystems, CDG-H52W5) (human, UniProt P07766 23-126; P09693 23-116).
T5 construct: Bought protein
T5 sequence (P07766 23-126, chain 1 of 2): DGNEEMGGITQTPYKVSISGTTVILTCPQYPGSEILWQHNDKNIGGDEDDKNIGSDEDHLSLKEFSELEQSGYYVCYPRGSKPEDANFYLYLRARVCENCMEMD
T5 sequence (P09693 23-116, chain 2 of 2, further chain): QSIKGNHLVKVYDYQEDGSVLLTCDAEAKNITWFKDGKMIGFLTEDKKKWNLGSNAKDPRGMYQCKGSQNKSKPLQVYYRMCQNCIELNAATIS
Described as above.
On to B1, for which binding was characterised by a dissociation constant (Kd) of 621 nM.
Still for that read-out and setting: to B2 belongs 464 nM; to B3, 257 nM.
Same read-out and setting: the value for B4 was 276 nM.
The same measure, in the same setting: to B5 belongs 342 nM; to B6, 474 nM.
Regarding B7, the Kd came out at 228 nM.
As for B8, the Kd was found to be 595 nM.
Still for that read-out and setting: to B9 belongs 268 nM.
In turn, B10 gave a Kd of 195 nM.
The same measure, in the same setting: the value for B11 was 219 nM.
Same read-out and setting: the value for B12 was 277 nM.
The same measure, in the same setting: to B13 belongs 245 nM; to B14, 759 nM; to B15, 552 nM.
As for B16, binding was put at a Kd of 260 nM.

The target of the next assay is T1, human PD-L1 on CHO-huPDL1 cells. The assay can be described thus: flow cytometry blocking assay on CHO-huPDL1 cells; blocked ligand human PD-1-mFc, 1.25 ug/mL, detected with PE anti-mouse IgG Fc. From the text: After washing with PBS, a flow cytometer was used for detection. EC₅₀ was fitted with the experimental data by GraphPad Prism.
T1 sequence (Q9NZQ7 19-290): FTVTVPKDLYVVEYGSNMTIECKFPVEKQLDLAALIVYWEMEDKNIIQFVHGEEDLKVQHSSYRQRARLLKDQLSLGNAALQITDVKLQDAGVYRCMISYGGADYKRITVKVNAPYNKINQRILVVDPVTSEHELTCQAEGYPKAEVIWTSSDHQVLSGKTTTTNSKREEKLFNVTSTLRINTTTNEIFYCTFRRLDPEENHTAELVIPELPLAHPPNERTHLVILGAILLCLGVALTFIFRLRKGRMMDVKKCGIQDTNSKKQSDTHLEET
As for B2, the “IC50 (read off the curve)” value is around 0.6 nM.
